Drawing on PubChem BioAssay AID1745853 (National Center for Advancing Translational Sciences (NCATS), 2022), this text covers activity change, negative = inhibition for 30 compounds.

Test in all cases: Primary Screen for Target Class Profiling of Small Molecule Inhibitors of Methyltransferases
In assay [1] the target is Glycine N-methyltransferase (Homo sapiens) (UniProt Q14749). The note with it: purified enzyme, MTase-Glo SAH luminescence; measured here: GNMT inhibition; at 40 µM; stronger effect = lower value. In short, it runs like this:
(§1)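 Each enzyme was reacted with SAM and its substrate, with compounds tested once at 40 uM; SAH formed was read by MTase-Glo luminescence.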

For assay [2], the target named is Guanidinoacetate N-methyltransferase (Homo sapiens) (UniProt Q14353). The settings on record: purified enzyme, MTase-Glo SAH luminescence; measured here: GAMT inhibition; at 40 µM; stronger effect = lower value. In short, it runs like this: as §1
Assay [3] has as its target Histamine N-methyltransferase (Homo sapiens) (UniProt P50135). The note with it: purified enzyme, MTase-Glo SAH luminescence; measured here: HNMT inhibition; at 40 µM; stronger effect = lower value. In short, it runs like this:
as §1

Assay [4] deals with Nicotinamide N-methyltransferase (Homo sapiens) (UniProt P40261). The settings on record: purified enzyme, MTase-Glo SAH luminescence; measured here: NNMT inhibition; at 40 µM; stronger effect = lower value. In short, it runs like this: as §1
The target of assay [5] is Phenylethanolamine N-methyltransferase (Homo sapiens) (UniProt P11086). The note with it: purified enzyme, MTase-Glo SAH luminescence; measured here: PNMT inhibition; at 40 µM; stronger effect = lower value. In short, it runs like this:
as §1

The other results are listed elsewhere or left out. The main result of the screen is listed elsewhere. These columns were measured beside it and carry no call.
On the % scale 0 is the no-effect control and ±100 the full control effect.

With `Cc1ccc(Cn2c(=O)c3ccc(C(=O)NC(C)C)cc3n3c(=O)n(C)nc23)cc1`, the activity change, negative = inhibition is 2.16% in assay [1]; 0% in assay [2]; 5.74% in assay [3]; 3.25% in assay [4]; 1.58% in assay [5].

On to `C[C@]12CC[C@@H]3c4ccc(O)cc4CC[C@H]3[C@@H]1CCC2=O`, for which the activity change, negative = inhibition in assay [1] was -28.9%; in assay [2] it was 8.85%; in assay [3], 3.07%; in assay [4], -10.4%; in assay [5], 1.51%.

With `Cc1cccc(CCNC(=O)CCCc2nnc3n4nc(-c5ccccc5)nc4c4ccccc4n23)c1`, the activity change, negative = inhibition in assay [1] came out at 2.31%; in assay [2], 2.62%; in assay [3], 8.09%; in assay [4], 10%; in assay [5], 3.59%.

`COc1cncc(Nc2cnc3ccc(-c4ccccc4OC)nn23)c1`: the activity change, negative = inhibition is -12.7% in assay [1]; -14.1% in assay [2]; -17.9% in assay [3]; -23% in assay [4]; -18.3% in assay [5].

As for `CC1=C(c2ccc(NC(=O)c3c(F)cccc3F)cc2)CN(c2nccs2)CC1`, the activity change, negative = inhibition was -2.32% in assay [1]; -8.37% in assay [2]; -6.67% in assay [3]; -15.3% in assay [4]; -1.59% in assay [5].

`Cn1c(=O)n(CC(=O)NCc2ccc3c(c2)OCO3)c(=O)c2cnc(-c3ccc(Cl)cc3)nc21`: the activity change, negative = inhibition is 0.962% in assay [1]; 5.57% in assay [2]; -3.67% in assay [3]; -2.19% in assay [4]; -0.918% in assay [5].

With `CCOC(=O)c1cc2n(n1)CC(C)(C(=O)NC1CCC(C)CC1)N(c1ccc(F)cc1C)C2=O` (stereo not drawn), the activity change, negative = inhibition in assay [1] is -0.549%; in assay [2] it was 3%; in assay [3], -1.07%; in assay [4] it was -2.29%; in assay [5], -3.32%.

`CC1(C)C=CN2C(=O)C3=CCCN3C(=O)[C@@H]2C[C@@]12Nc1ccccc1C2=O`: the activity change, negative = inhibition in assay [1] is 0%; in assay [2], -1.88%; in assay [3], 4.5%; in assay [4], -15.3%; in assay [5], -12.2%.

With `CC(=O)Nc1c2n(c3ccc(F)cc13)CC(C)(C(=O)NC1CCCC1)N(C1CCC(C)CC1)C2=O` (stereo not drawn), the activity change, negative = inhibition in assay [1] is -0.011%; in assay [2] it was -3.18%; in assay [3], 2.43%; in assay [4], -10.6%; in assay [5], -4.06%.

`CC1(C(=O)NC2CCCCC2)Cn2c(cc3occc32)C(=O)N1CCCN1CCCCC1` (stereo not drawn): the activity change, negative = inhibition is 9.23% in assay [1]; 0.022% in assay [2]; 5.13% in assay [3]; 14.9% in assay [4]; 5.76% in assay [5].

Turning to `Nc1ncnc2c1c(-c1cccc(OCc3ccccc3)c1)cn2C1CC(CN2CCC2)C1` (stereo not drawn), the activity change, negative = inhibition is -80.7% in assay [1]; -52.1% in assay [2]; -95% in assay [3]; -77.1% in assay [4]; -97.9% in assay [5].

As to `O=C(NCCc1cccs1)c1nnc(-c2ccc(S(=O)(=O)N3CCCC3)cc2)o1`, the activity change, negative = inhibition in assay [1] is -3.26%; in assay [2] it was -0.836%; in assay [3], -3.78%; in assay [4] it was -11.1%; in assay [5], -7.78%.

On to `CNc1cc(OC)c(C(=O)N[C@@H]2CCN(Cc3ccccc3)[C@@H]2C)cc1Cl`, for which the activity change, negative = inhibition in assay [1] is -1.46%; in assay [2], 2.27%; in assay [3], 2.18%; in assay [4] it was -16.5%; in assay [5] it was -7.78%.

For the compound `CC1(C(=O)NC2CCCC2)Cn2c(cc3ccccc32)C(=O)N1Cc1cccc(F)c1` (stereo not drawn), the activity change, negative = inhibition was 1.04% in assay [1]; 3.03% in assay [2]; 3.61% in assay [3]; -13.6% in assay [4]; -3.66% in assay [5].

On to `CCNCc1nc2c(N)nc3ccccc3c2n1CC(C)(C)O`, for which the activity change, negative = inhibition in assay [1] was 1.09%; in assay [2], 3.83%; in assay [3], -7.61%; in assay [4], -14.8%; in assay [5] it was 3.3%.

For the compound `CN1CC(=O)N(C2CCCC2)Cc2c(NC3CCCC3)ncnc21`, the activity change, negative = inhibition in assay [1] was -3.21%; in assay [2], -1.5%; in assay [3], -7.99%; in assay [4] it was -12%; in assay [5] it was -1.47%.

Turning to `Cn1c(=O)c2ccc(C(=O)NC3CCCCC3)cc2n2c(=O)n(CC(=O)c3cccc(Cl)c3)nc12`, the activity change, negative = inhibition was -0.137% in assay [1]; -2.71% in assay [2]; 0.08% in assay [3]; 11.5% in assay [4]; -1.74% in assay [5].

As for `CCNc1ncc(C(=O)NC2CC(c3nnc(CO)n3CC)C2)cn1` (stereo not drawn), the activity change, negative = inhibition in assay [1] was -7.51%; in assay [2], -14.4%; in assay [3], -5.41%; in assay [4], -10.2%; in assay [5], -9.26%.

With `CC(=O)Nc1ccc(Nc2nc3c(S(=O)(=O)c4ccc(C(C)C)cc4)nnn3c3ccccc23)cc1`, the activity change, negative = inhibition in assay [1] is -3.44%; in assay [2], 0%; in assay [3] it was 4.03%; in assay [4], 0.169%; in assay [5], -4.28%.

Regarding `CCOC(=O)c1ccccc1NC(=O)N1CCn2c(C)ccc2C1CC` (stereo not drawn), the activity change, negative = inhibition in assay [1] was -6.13%; in assay [2], 3.39%; in assay [3] it was 6.74%; in assay [4] it was -2.08%; in assay [5], -4.88%.

`Cc1ccc(NC(=O)N2CCn3cccc3C2Cc2ccccc2)cc1F` (stereo not drawn): the activity change, negative = inhibition was -11.4% in assay [1]; -9.86% in assay [2]; -12.3% in assay [3]; -11% in assay [4]; -11.1% in assay [5].

`Cc1cccc(Nc2nc(N)nc(CN3CC[C@@](O)(C4CCC4)[C@H](C)C3)n2)c1`: the activity change, negative = inhibition in assay [1] was -0.229%; in assay [2], -0.986%; in assay [3], -7.13%; in assay [4] it was -7.98%; in assay [5], -12.3%.

Regarding `COc1ccc(S(=O)(=O)Nc2ccc3n(c2=O)C[C@H]2C[C@@H]3CN(C(=O)Nc3cc(OC)cc(OC)c3)C2)cc1`, the activity change, negative = inhibition in assay [1] was -11.3%; in assay [2], -13.1%; in assay [3], -11.6%; in assay [4], -21.4%; in assay [5] it was -30.7%.

As for `CC(C)Cn1c(=O)c2ccc(C(=O)NC(C)C)cc2n2c(SCC(N)=O)nnc12`, the activity change, negative = inhibition was 4.97% in assay [1]; 0% in assay [2]; 9.42% in assay [3]; 4.91% in assay [4]; 5.91% in assay [5].

For the compound `Oc1ccc2c(c1)OCC1(O)Cc3cc(O)c(O)cc3C21` (stereo not drawn), the activity change, negative = inhibition in assay [2] is -2.32%; in assay [4], -18.1%; in assay [5], 3.98%.

Consider `C[C@@H]1O[C@@H](O[C@H]2[C@H](O)[C@@H](O[C@@H]3O[C@H](CO)[C@@H](O)[C@H](O[C@@H]4O[C@H](CO)[C@@H](O)[C@H](O)[C@H]4O)[C@H]3O)[C@H](O[C@H]3CC[C@@]4(C)C(=CC[C@@H]5C4CC[C@@]4(C)C5C[C@@H]5OC6(CC[C@@](C)(CO[C@@H]7O[C@H](CO)[C@@H](O)[C@H](O)[C@H]7O)O6)[C@@H](C)[C@@H]54)C3)O[C@@H]2CO)[C@H](O)[C@H](O)[C@H]1O` (stereo partly drawn), for which the activity change, negative = inhibition was -2.56% in assay [1]; -9.89% in assay [2]; 7.47% in assay [3]; -20.8% in assay [4]; -9.22% in assay [5].

With `CCN(CC)C(=O)c1cc2c(s1)CCC(C(=O)O)C2` (stereo not drawn), the activity change, negative = inhibition in assay [1] was -2%; in assay [2] it was -1.45%; in assay [3], 0.613%; in assay [4], -1.71%; in assay [5], -6.21%.

As to `CC1(C)CC2C(O)C3=C(CC(C)(O)C2C1)C(=O)OC3O` (stereo not drawn), the activity change, negative = inhibition is 5.2% in assay [1]; 6.89% in assay [2]; 14% in assay [3]; -6.79% in assay [4]; 7.83% in assay [5].

As to `Cc1cccc(OCc2c(C(=O)N3CCCC3c3nncn3CCN(C)C)noc2C)c1` (stereo not drawn), the activity change, negative = inhibition in assay [1] is -5.46%; in assay [2] it was -1.41%; in assay [3] it was -1.13%; in assay [4], -2.42%; in assay [5], 2.8%.

Regarding `C=C(C)C(=O)O[C@H]1[C@H]2C(=C)C(=O)O[C@@H]2/C=C(\CO)CC/C=C(/C=O)[C@@H]1O`, the activity change, negative = inhibition in assay [1] was -3.88%; in assay [2], -1.37%; in assay [3] it was 2.5%; in assay [4], -12.8%; in assay [5], -9.15%.
